Test results taken from PubChem BioAssay AID463173 (ICCB-Longwood Screening Facility, Harvard Medical School, 2010).
The whole screen tested about 52,000 compounds, of which about 1,700 (3.3%) were called active. Cut-off read from the data, not from the text of the source: active = survival mostly below about 52% (no sharp cut-off); inactive = mostly above about 56%. The list shows a part of the results.

What follows are molecules tested on Wild type (assay: S. aureus survival, RN4220 and DeltatarO strains – OD600, teichoic acid synthesis inhibitors, primary screen (AID 463173)). Conditions: S. aureus RN4220 wild type/DeltatarO growth, OD600, 18 h, stronger effect = lower value, screened at 18.75 µg/mL (by protocol).

Structure (SMILES) | survival
COc1ccc(Cl)cc1Nc1sc(C(=O)c2ccccc2)c(N)c1C(=O)Nc1ccccc1 | inactive: 101%
Cc1ccc(S(=O)(=O)N/N=C2/CSCC2NC(=O)c2ccccc2)cc1 (configuration not stated) | inactive: 114%
O=C(NCc1cccc(Cl)c1)c1cc2c(s1)-c1ccccc1OC2 | inactive: 52%
CCc1ccc(-c2cn3c(n2)sc2cc(C(=O)NC4CCCCCC4)ccc23)cc1 | inactive: 85%
CCc1c(C)sc2c1CCN(Cc1cccc(F)c1)C2c1ccccc1 (configuration not stated) | inactive: 53%
CSc1nnc(-c2ccccc2N)c(=O)[nH]1 | inactive: 101%
CC(=O)N1CCc2cc(CNS(=O)(=O)c3ccc(F)cc3)ccc21 | inactive: 73%
COCCc1nn2c(=O)cc(COC(=O)c3ccc4c(c3)OCO4)nc2s1 | inactive: 121%
Cc1ccc(-c2cc(C(=O)NCc3cnn(C)c3C)c3cc(Br)ccc3n2)cc1 | inactive: 73%
Cc1ccc(S(=O)(=O)c2nc(-c3ccccc3F)oc2N2CCCCC2)cc1 | active: 17%
Cc1ccc(NC2=C(c3ccc(C(F)(F)F)cc3)C(=O)c3ccccc32)cc1C | inactive: 81%
CC(=O)Nc1ccc(C(=O)CSc2nnc(-c3ccccc3)n2-c2ccccc2)cc1 | inactive: 85%
O=C(NCC(c1cccnc1)N1CCc2ccccc2C1)c1ccc(F)c(F)c1 (configuration not stated) | inactive: 82%
O=C(Nc1ccc(Cl)cc1)C1CCN(c2nc3ccccc3nc2C(F)(F)F)CC1 | inactive: 19%
O=C(Nc1ccc(F)c(F)c1)c1nc2ncccn2n1 | inactive: 102%
O=C(NC1CC1)c1ccc(Cn2c(SCc3cccc(F)c3)nc3cccnc32)cc1 | inactive: 118%
Cn1c(SCC#N)nnc1-c1ccccc1 | inactive: 111%
COc1ccccc1N1CCN(C(=O)c2ccc(CS(=O)c3ccccc3C)o2)CC1 (configuration not stated) | inactive: 75%
COc1ccc(CCN2C(=O)c3oc4cc(C)cc(C)c4c(=O)c3C2c2ccc(F)cc2)cc1OC (configuration not stated) | inactive: 79%

Structure (SMILES) | survival
Cn1cc(S(=O)(=O)c2cccc(Cl)c2)c(=O)c2cc(F)c(N3CCCCCC3)cc21 | inactive: 55%
CCS(=O)(=O)N1CCc2cc(C(=O)NCc3ccc(OC)cc3)ccc21 | inactive: 86%
O=C(NC1CCN(C(=O)NC2CCCCC2)CC1)c1ccc(F)cc1 | inactive: 99%
CCC(CC)C(=O)Nc1ccc(OCc2cc(=O)n3c4c(sc3n2)CCCC4)cc1 | inactive: 122%
CS(=O)(=O)N(CC(=O)N1CCc2ccccc2C1)c1ccc(F)cc1 | inactive: 109%
Cc1ccc(C(=O)N2CCc3cc(CNS(=O)(=O)c4ccc(Cl)s4)ccc32)cc1 | inactive: 60%
Cc1ccc(C)c(N2CCN(C(=O)C3CCN(c4nc(-c5ccc(C(C)C)cc5)no4)CC3)CC2)c1 | inactive: 87%
CCOc1ccc(NC(=O)c2ccc3c(SCC(=O)O)c4c(nc3c2)CCCC4)cc1 | inactive: 86%
Cn1cc(S(=O)(=O)c2ccc(Cl)cc2)c(=O)c2cc(F)c(N3CCCCCC3)cc21 | inactive: 72%
O=C(CN1CCN(S(=O)(=O)c2cc(Cl)ccc2Cl)CC1)Nc1cccc(F)c1 | inactive: 90%
COc1cccc(C2(O)CCN(CC(=O)N3CCCC3)CC2)c1 | inactive: 110%
O=C(Nc1ccc(NC(=O)c2cc3ccccc3o2)cc1)c1ccccc1 | inactive: 80%
CC1=C(C(=O)Nc2ccc(C)cc2C)C(c2ccccc2[N+](=O)[O-])n2ncc(C(=O)Nc3ccccc3)c2N1 (configuration not stated) | inactive: 76%
CCOC(=O)C1CCCN(C(=O)c2ccc3c(c2)N(Cc2ccccc2)C(=O)c2ccccc2S3(=O)=O)C1 (configuration not stated) | inactive: 96%
Fc1ccc(-c2nc(Nc3ccc(F)c(Cl)c3)nc3c2COc2ccccc2-3)cc1 | inactive: 52%
Cc1cccnc1NCC(O)COc1ccccc1 (configuration not stated) | inactive: 105%
CC(C(=O)Nc1cccc(C#N)c1)n1nc(-c2ccccc2)c2c(c1=O)CCCC2 (configuration not stated) | inactive: 41%
CCOc1ccc(C2CC(=O)n3nc(-c4ccc(C)cc4)nc3S2)cc1OC (configuration not stated) | inactive: 103%
CC(C)N(C(=O)Cn1cc(S(=O)(=O)Cc2ccc(Cl)cc2)c2ccccc21)C(C)C | inactive: 89%

Structure (SMILES) | survival
Nc1nn(-c2ccccc2)nc1C(=O)OCc1c(F)cccc1Cl | inactive: 61%
Cc1ccc(N(Cc2cccs2)C(=O)c2ccco2)cc1 | inactive: 85%
COc1cc(Nc2nc(SCC(=O)c3ccc(Cl)c(Cl)c3)nc3ccccc23)cc(OC)c1 | inactive: 88%
O=C(Nc1ccc2nc3n(c(=O)c2c1)CCCCC3)c1cccc(C(F)(F)F)c1 | inactive: 112%
O=C(CCC1N=C2c3ccccc3N=C(SCC(=O)Nc3ccc(F)cc3)N2C1=O)NCc1ccco1 (configuration not stated) | inactive: 121%
COc1ccc(-n2c(SCC(=O)NCc3ccccc3)nc3c([nH]c4ccccc43)c2=O)cc1 | inactive: 74%
COc1ccc(N=C2SC(C(N)=O)CC(=O)N2Cc2ccccc2)cc1 (configuration not stated) | inactive: 113%
O=C1C2(Cc3ccccc3)CN3CN(C2)CC1(Cc1ccccc1)C3 | inactive: 101%
COc1ccc(Nc2nn(-c3ccc(OC(F)(F)F)cc3)nc2C(C)=O)cc1 | inactive: 95%
Cc1cc(C(=O)NCc2ccccc2)c2c(C)nn(-c3cccc(F)c3)c2n1 | active: 14%
COc1ccc(NC(=O)CC2Nc3ccccc3NC2=O)cc1 (configuration not stated) | inactive: 73%
CCCCN(C)C(=O)Cn1cnc2sc(C)c(S(=O)(=O)N3CCC(C)CC3)c2c1=O | inactive: 81%
COc1cc(OC)c(NC(=O)N2CCC(CN3CCCC3)CC2)cc1Cl | inactive: 69%
CCOC(=O)c1ccc(Nc2nn3c(=O)c4ccccc4nc3s2)cc1 | inactive: 71%
COc1ccc(OC)c(NC(=O)c2ccc3c(Cl)c4c(nc3c2)CCCC4)c1 | inactive: 84%
Cc1ccc(CNc2ccc3cc(S(=O)(=O)N4CCCCC4)ccc3n2)cc1 | inactive: 63%
COc1ccccc1Nc1ncnc2scc(-c3ccc(F)cc3)c12 | inactive: 82%
Cc1ccc(CNC(=O)c2ccc(CS(=O)(=O)Cc3ccc(C)cc3)o2)cc1 | inactive: 22%
Cc1nn(-c2ccccc2)c2c1N(CC(=O)N1CCN(c3ccccc3F)CC1)C(=O)CS2 | inactive: 115%
